Reference: the supplement of paper PMC8728848
Some of the results follow.

Key:
Assay in all cases: glycan array binding signal (z-score within array); higher = stronger binding
Settings in all cases: glycan notation: IUPAC condensed, linker removed
Gal(b1-2)Gal = target: Gal(b1-2)Gal
In short: (§1)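 From the Consortium for Functional Glycomics database, 3228 arrays were curated, keeping only those whose protein sequence was available. Binding is given as a within-array Z-score averaged across arrays sharing a protein sequence and across linkers. Negative Z-scores can be read as non-binding.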

Gal(b1-3)Gal = target: Gal(b1-3)Gal
In short: as §1

Gal(b1-3)Gal(b1-4)GlcNAc = target: Gal(b1-3)Gal(b1-4)GlcNAc
In short: as §1

Gal(b1-3)GalNAc = target: Gal(b1-3)GalNAc
In short: as §1

[1] = target: Gal(b1-3)GalNAc(b1-3)Gal(a1-4)Gal(b1-4)Glc
In short: as §1

[2] = target: Gal(b1-3)GalNAc(b1-4)Gal(b1-4)Glc
In short: as §1

[3] = target: Gal(b1-3)GalNAc(b1-4)[Neu5Ac(a2-3)]Gal(b1-4)Glc
In short: as §1

Gal(b1-3)GlcNAc = target: Gal(b1-3)GlcNAc
In short: as §1

[4] = target: Gal(b1-3)GlcNAc(b1-2)Man(a1-3)[Gal(b1-3)GlcNAc(b1-2)Man(a1-6)]Man(b1-4)GlcNAc(b1-4)GlcNAc
In short: as §1

[5] = target: Gal(b1-3)GlcNAc(b1-3)Gal(b1-3)GlcNAc
In short: as §1

[6] = target: Gal(b1-3)GlcNAc(b1-3)Gal(b1-4)Glc
In short: as §1

[7] = target: Gal(b1-3)GlcNAc(b1-3)Gal(b1-4)GlcNAc
In short: as §1

[8] = target: Gal(b1-3)[Fuc(a1-4)]GlcNAc
In short: as §1

[9] = target: Gal(b1-3)[Fuc(a1-4)]GlcNAc(b1-3)Gal(b1-3)[Fuc(a1-4)]GlcNAc
In short: as §1

[10] = target: Gal(b1-3)[Fuc(a1-4)]GlcNAc(b1-3)Gal(b1-4)GlcNAc
In short: as §1

[11] = target: Gal(b1-3)[Fuc(a1-4)]GlcNAc(b1-3)Gal(b1-4)[Fuc(a1-3)]GlcNAc
In short: as §1

[12] = target: Gal(b1-3)[GlcNAc(b1-6)]GalNAc
In short: as §1

[13] = target: Gal(b1-3)[Neu5Ac(a2-6)]GalNAc
In short: as §1

[14] = target: Gal(b1-3)[Neu5Ac(a2-6)]GlcNAc(b1-6)Gal(b1-4)Glc
In short: as §1

[15] = target: Gal(b1-3)[Neu5Ac(b2-6)]GalNAc
In short: as §1

[16] = target: Gal(b1-4)GalNAc(a1-3)[Fuc(a1-2)]Gal(b1-4)GlcNAc
In short: as §1

[17] = target: Gal(b1-4)GalNAc(b1-3)[Fuc(a1-2)]Gal(b1-4)GlcNAc
In short: as §1

Gal(b1-4)Glc = target: Gal(b1-4)Glc
In short: as §1

Gal(b1-4)Glc6S = target: Gal(b1-4)Glc6S
In short: as §1

Gal(b1-4)GlcNAc = target: Gal(b1-4)GlcNAc
In short: as §1

[18] = target: Gal(b1-4)GlcNAc(a1-6)Gal(b1-4)GlcNAc
In short: as §1

[19] = target: Gal(b1-4)GlcNAc(b1-2)Man(a1-3)[Gal(b1-4)GlcNAc(b1-2)Man(a1-6)]Man(b1-4)GlcNAc(b1-4)GlcNAc
In short: as §1

[20] = target: Gal(b1-4)GlcNAc(b1-3)Gal(b1-3)GlcNAc
In short: as §1

[21] = target: Gal(b1-4)GlcNAc(b1-3)Gal(b1-4)Glc
In short: as §1

[22] = target: Gal(b1-4)GlcNAc(b1-3)Gal(b1-4)GlcNAc
In short: as §1

[23] = target: Gal(b1-4)GlcNAc(b1-3)Gal(b1-4)GlcNAc(b1-3)Gal(b1-4)GlcNAc
In short: as §1

[24] = target: Gal(b1-4)GlcNAc(b1-3)Gal(b1-4)[Fuc(a1-3)]GlcNAc(b1-3)Gal(b1-4)[Fuc(a1-3)]GlcNAc
In short: as §1

[25] = target: Gal(b1-4)GlcNAc(b1-3)GalNAc
In short: as §1

[26] = target: Gal(b1-4)GlcNAc(b1-3)[Gal(b1-4)GlcNAc(b1-6)]Gal(b1-4)GlcNAc
In short: as §1

[27] = target: Gal(b1-4)GlcNAc(b1-3)[GlcNAc(b1-6)]Gal(b1-4)GlcNAc
In short: as §1

[28] = target: Gal(b1-4)GlcNAc(b1-6)Gal(b1-4)GlcNAc
In short: as §1

[29] = target: Gal(b1-4)GlcNAc(b1-6)Gal(b1-4)GlcNAc(b1-6)GalNAc
In short: as §1

[30] = target: Gal(b1-4)GlcNAc(b1-6)GalNAc
In short: as §1

[31] = target: Gal(b1-4)GlcNAc(b1-6)[Gal(b1-3)]GalNAc
In short: as §1

Gal3S(b1-3)GalNAc = target: Gal3S(b1-3)GalNAc
In short: as §1

Gal3S(b1-3)GlcNAc = target: Gal3S(b1-3)GlcNAc
In short: as §1

[32] = target: Gal3S(b1-3)[Fuc(a1-4)]GlcNAc
In short: as §1

Gal3S(b1-4)Glc = target: Gal3S(b1-4)Glc
In short: as §1

Gal3S(b1-4)Glc6S = target: Gal3S(b1-4)Glc6S
In short: as §1

Gal3S(b1-4)GlcNAc = target: Gal3S(b1-4)GlcNAc
In short: as §1

B1: R410P1E11 (Tachypleus tridentatus), TAL2_TACTR (protein)
chain: MEKGTPPTHDSDNWMGRAKEIGNGGWDQFQFLFFDPNGYLYAVSNDKLYKASPPQSDTDNWIARATEIGSGGWSGFKFLFFHPNGYLYAVRGQRFYKALPPVSNQD
glycan array binding signal (z-score) (Gal(b1-2)Gal): -0.309 | glycan array binding signal (z-score) (Gal(b1-3)Gal): -0.213 | glycan array binding signal (z-score) (Gal(b1-3)Gal(b1-4)GlcNAc): -0.622 | glycan array binding signal (z-score) (Gal(b1-3)GalNAc): -0.233 | glycan array binding signal (z-score) [1]: 1.09 | glycan array binding signal (z-score) [2]: -0.247 | glycan array binding signal (z-score) [3]: -0.397 | glycan array binding signal (z-score) (Gal(b1-3)GlcNAc): -0.392 | glycan array binding signal (z-score) [4]: -0.301 | glycan array binding signal (z-score) [5]: -0.154 | glycan array binding signal (z-score) [6]: -0.25 | glycan array binding signal (z-score) [7]: -0.214 | glycan array binding signal (z-score) [8]: -0.104 | glycan array binding signal (z-score) [9]: -0.298 | glycan array binding signal (z-score) [10]: -0.52 | glycan array binding signal (z-score) [11]: 1.49 | glycan array binding signal (z-score) [12]: -0.039 | glycan array binding signal (z-score) [13]: -0.538 | glycan array binding signal (z-score) [14]: -0.021 | glycan array binding signal (z-score) [15]: -0.346 | glycan array binding signal (z-score) [16]: -0.1 | glycan array binding signal (z-score) [17]: 0.323 | glycan array binding signal (z-score) (Gal(b1-4)Glc): -0.21 | glycan array binding signal (z-score) (Gal(b1-4)Glc6S): -0.407 | glycan array binding signal (z-score) (Gal(b1-4)GlcNAc): 0.008 | glycan array binding signal (z-score) [18]: -0.52 | glycan array binding signal (z-score) [19]: -0.14 | glycan array binding signal (z-score) [20]: -0.341 | glycan array binding signal (z-score) [21]: 0.015 | glycan array binding signal (z-score) [22]: -0.111 | glycan array binding signal (z-score) [23]: -0.368 | glycan array binding signal (z-score) [24]: -0.411 | glycan array binding signal (z-score) [25]: 1.05 | glycan array binding signal (z-score) [26]: -0.144 | glycan array binding signal (z-score) [27]: -0.293 | glycan array binding signal (z-score) [28]: -0.267 | glycan array binding signal (z-score) [29]: -0.2 | glycan array binding signal (z-score) [30]: 0.235 | glycan array binding signal (z-score) [31]: 0.985 | glycan array binding signal (z-score) (Gal3S(b1-3)GalNAc): -0.557 | glycan array binding signal (z-score) (Gal3S(b1-3)GlcNAc): -0.424 | glycan array binding signal (z-score) [32]: -0.521 | glycan array binding signal (z-score) (Gal3S(b1-4)Glc): -0.418 | glycan array binding signal (z-score) (Gal3S(b1-4)Glc6S): -0.509 | glycan array binding signal (z-score) (Gal3S(b1-4)GlcNAc): -0.395
